Some of the results follow.
Tested on: S. aureus RN4220
Experiment: growth inhibition call (relative growth <= 0.2)
Conditions: 50 µM

Growth inhibition call, active:
C[C@@H]1CCCCO[C@@H](CN(C)C(=O)Nc2ccc(C(F)(F)F)cc2)[C@H](C)CN([C@@H](C)CO)C(=O)c2cc(NS(=O)(=O)c3cn(C)cn3)ccc2O1

Growth inhibition call, inactive:
Cc1cc(C)c(NC(=O)CN(CC(=O)O)CC(=O)O)c(C)c1Br, Clc1ccc(C(c2ccccc2Cl)C(Cl)Cl)cc1 (stereo not given), CCCCC(CC)COC(=O)CC(C(=O)OCC(CC)CCCC)S(=O)(=O)[O-].[Na+] (stereo not given), Cc1noc(C)c1NC(=O)N(C)C[C@H]1Oc2c(NC(=O)C3CC3)cccc2C(=O)N([C@H](C)CO)C[C@@H]1C, C[C@@H]1CN([C@H](C)CO)C(=O)c2cc(NC(=O)CCC(F)(F)F)ccc2O[C@H]1CN(C)Cc1ccc(Oc2ccccc2)cc1, COc1cc(-c2coc3cc(O[C@@H]4O[C@H](CO)[C@@H](O)[C@H](O)[C@H]4O)c(OC)c(O)c3c2=O)cc(O)c1OC, C[C@H]1CN([C@@H](C)CO)C(=O)c2cccc(NC(=O)Nc3ccc4c(c3)OCO4)c2O[C@@H]1CN(C)Cc1ccc(C(=O)Nc2ccccc2N)cc1, O=C(NCCN1CCOCC1)C(=O)NC[C@H]1COc2ccccc2O1, CCS(=O)(=O)Nc1ccc2c(c1)C(=O)N(C)[C@@H]1CC[C@@H](CC(=O)NCCCN3CCOCC3)O[C@@H]1CO2, CO[C@@H]1CN(C)C(=O)c2ccc(NC(C)=O)cc2OC[C@H](C)N(S(=O)(=O)c2cn(C)cn2)C[C@H]1C, C[C@@H]1CN([C@@H](C)CO)C(=O)Cc2cc(NC(=O)CCCN(C)C)ccc2O[C@H]1CN(C)Cc1ccncc1, CCS(=O)(=O)N1CC[C@]2(CN(c3cnn(C)c3)C(=O)CN2C(C)=O)C1, CC(C)C[C@@H]1C(=O)O[C@H](C)C(=O)N(C)[C@@H](CC(C)C)C(=O)O[C@H](Cc2ccc(N3CCOCC3)cc2)C(=O)N(C)[C@@H](CC(C)C)C(=O)O[C@H](C)C(=O)N(C)[C@@H](CC(C)C)C(=O)O[C@H](Cc2ccc(N3CCOCC3)cc2)C(=O)N1C, O=C(C[C@@H]1CC=CCC[C@@H](Cc2ccc(F)cc2)C(=O)OC[C@@H](Cc2c[nH]c3ccccc23)NC1=O)N[C@@H](CO)Cc1ccccc1, COc1ccc(S(=O)(=O)N(C)C[C@H]2Oc3ccc(NC(=O)Nc4c(C)noc4C)cc3C(=O)N([C@H](C)CO)C[C@@H]2C)cc1, C#CCN1[C@H](/C=C/C2CC2)[C@H](Cc2ccccc2)OC(=O)[C@@H]1Cc1ccc(-n2cc(COc3ccccc3/C=C(C)/C=C/C(=O)NO)nn2)cc1, C[C@H](CO)N1C[C@H](C)[C@H](CN(C)S(C)(=O)=O)Oc2ncc(C#CC3(O)CCCC3)cc2C1=O, COc1cccc(NC(=O)N[C@@H]2C=C[C@H](CC(=O)N3CCN(C)CC3)O[C@@H]2CO)c1, CCCNC(=O)N1C[C@H](C)[C@H](OC)CN(C)C(=O)c2ccc(NS(=O)(=O)CC(F)(F)F)cc2OC[C@H]1C, C[C@H](CO)N1C[C@H](C)[C@H](CN(C)C(=O)Nc2ccc(C(F)(F)F)cc2)OCCCC[C@H](C)Oc2ccc(NC(=O)c3ccccc3)cc2C1=O, C[C@H](CO)N1C[C@H](C)[C@H](CN(C)C(=O)CN(C)C)Oc2cc(C#C[C@@H](C)O)ccc2S1(=O)=O, C[C@@H]1CN([C@H](C)CO)C(=O)c2cccc(NC(=O)c3cnccn3)c2O[C@@H]1CN(C)S(=O)(=O)c1cn(C)cn1, COc1cccc(-c2cn(CC[C@H]3CC[C@H](NC(=O)CN(C)C)[C@H](CO)O3)nn2)c1, Cc1cc(C=Cc2ccc3cc(N(C)C)ccc3[n+]2C)c(C)n1-c1ccccc1.O=C([O-])c1cc2ccccc2c(Cc2c(O)c(C(=O)O)cc3ccccc23)c1O, C[C@@H]1CCCCO[C@@H](CN(C)C(=O)Nc2ccc3c(c2)OCO3)[C@@H](C)CN([C@H](C)CO)C(=O)c2cc(NC(=O)CCC(F)(F)F)ccc2O1, C[C@@H]1CN([C@@H](C)CO)C(=O)c2cc(NC(=O)Cc3cn(C)c4ccccc34)ccc2O[C@H]1CN(C)C(=O)Nc1ccc(C(F)(F)F)cc1, NCc1cccc(-c2ccccc2)c1, C[C@@H]1CN([C@H](C)CO)C(=O)c2cccc(NC(=O)C3CCOCC3)c2O[C@H]1CN(C)S(=O)(=O)c1ccc(F)cc1, C[C@@H]1CCCCO[C@H](CN(C)S(=O)(=O)c2ccc(Cl)cc2)[C@H](C)CN([C@H](C)CO)C(=O)c2cc(NC(=O)CCC(F)(F)F)ccc2O1, Cc1noc(C)c1NC(=O)Nc1ccc2c(c1)C(=O)N([C@@H](C)CO)C[C@H](C)[C@H](CN(C)C(=O)NC1CCCCC1)OCCCC[C@@H](C)O2, C[C@@H]1CC[C@]2(C(=O)O[C@@H]3O[C@H](CO)[C@@H](O)[C@H](O)[C@H]3O)CC[C@]3(C)C(=CC[C@H]4[C@@]5(C)C[C@@H](O)[C@H](O)[C@@](C)(CO)[C@@H]5CC[C@]43C)[C@@H]2[C@]1(C)O, C[C@@H]1CCCCO[C@@H](CN(C)C(=O)Nc2ccccc2)[C@H](C)CN([C@@H](C)CO)C(=O)c2cc(NC(=O)Nc3ccc(C(F)(F)F)cc3)ccc2O1, Cc1cc(NC(=O)[C@@H]2CCCN2)no1, CN(C)S(=O)(=O)n1nnc2ccccc21, Cc1noc(C)c1S(=O)(=O)N(C)C[C@H]1Oc2ccc(NC(=O)Cc3cn(C)c4ccccc34)cc2CC(=O)N([C@@H](C)CO)C[C@@H]1C, Cc1ccccc1-c1ccc2c(c1)O[C@@H](CN(C)C(=O)Nc1ccc(C(F)(F)F)cc1)[C@@H](C)CN([C@H](C)CO)S2(=O)=O, C[C@H](CO)N1C[C@H](C)[C@H](CN(C)CC2CC2)Oc2ccc(NS(=O)(=O)c3cn(C)cn3)cc2C1=O, C[C@@H]1CCCCO[C@H](CN(C)Cc2ccc3c(c2)OCO3)[C@@H](C)CN([C@H](C)CO)C(=O)c2cc(NS(=O)(=O)c3ccccc3)ccc2O1, COc1ccc(C2COc3c(ccc(O)c3OC)C2)c(OC)c1O (stereo not given)
